Experimental data taken from the supplement of paper PMC3334620.
Whole data set: some 33,000 sequences, median “E-score (-0.5 to 0.5)” near -0.035, cut for the highest 2% near 0.34. This is one part of the list.

Molecular target: T1, Mot3 (UniProt P54785)
T1 sequence: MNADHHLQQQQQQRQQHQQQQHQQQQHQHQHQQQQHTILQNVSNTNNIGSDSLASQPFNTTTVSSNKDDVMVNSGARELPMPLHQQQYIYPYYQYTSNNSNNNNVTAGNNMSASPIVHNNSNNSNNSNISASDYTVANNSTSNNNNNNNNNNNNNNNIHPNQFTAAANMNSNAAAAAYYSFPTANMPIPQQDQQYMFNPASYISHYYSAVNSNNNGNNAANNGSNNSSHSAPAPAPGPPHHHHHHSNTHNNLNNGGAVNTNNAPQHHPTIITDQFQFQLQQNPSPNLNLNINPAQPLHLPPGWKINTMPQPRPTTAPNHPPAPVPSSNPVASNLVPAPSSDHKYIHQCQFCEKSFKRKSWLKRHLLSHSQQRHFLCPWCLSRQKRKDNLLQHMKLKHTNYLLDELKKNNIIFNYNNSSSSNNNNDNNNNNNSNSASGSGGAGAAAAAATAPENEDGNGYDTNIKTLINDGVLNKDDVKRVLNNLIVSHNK
Experiment: PBM E-score (8-mer binding enrichment) (E-score (-0.5 to 0.5)); higher = stronger / more preferred TF binding; most listed sequences are background and not binding sites
Details: protein concentration: 200 nM; construct: GST-full length
Procedure: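 Universal 'all 10-mer' protein binding microarrays (Agilent AMADID 015681) probed with GST-tagged S. cerevisiae TFs (full-length or DBD) made by in vitro transcription/translation (PURExpress), about 100-200 nM. Bound TF was detected with fluorescent anti-GST. Each ungapped 8-mer (which stands for itself and its reverse complement) is scored by the PBM enrichment score (E-score), a modified Wilcoxon-Mann-Whitney statistic from -0.5 to +0.5, computed with the Universal PBM Analysis Suite. Scale: above 0.35 generally sequence-specific binding.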

| Sequence | PBM E-score |
| --- | --- |
| GCCATGAC | -0.192 |
| GTAATTCA | 0.306 |
| ATGTACGA | 0.163 |
| CAGGAACG | 0.466 |
| AAAAGCGT | -0.0234 |
| AAGCTATC | 0.0724 |
| CATATGCC | 0.05 |
| GCGGATCA | -0.145 |
| TCTCACCA | -0.192 |
| AGATAACT | -0.141 |
| ATTTGCCA | -0.141 |
| AGCGTAAA | 0.12 |
| ATGCTAAA | 0.118 |
| CAAAAATC | -0.0172 |
| AACACGCG | 0.301 |
| ACCGCAAT | -0.0425 |
| CATCTTGC | -0.133 |
| CCACAGCA | -0.0823 |
| ATGGTGTA | 0.191 |
| GGAGCACA | -0.177 |
| AGCGCTCC | -0.197 |
| AAAATTTG | 0.113 |
| GGTGCGTA | 0.195 |
| GCACATCA | 0.0286 |
| TAGACTAA | -0.108 |

| Sequence | PBM E-score |
| --- | --- |
| AGGAGATG | -0.0164 |
| CACTGTGG | -0.108 |
| ACGTACAG | 0.123 |
| ACGACGCG | 0.0915 |
| GCAGCAGC | 0.109 |
| GTTCCAGA | -0.0891 |
| ATTCAATC | -0.0884 |
| GGGCCAAA | -0.242 |
| CGTTGATA | 0.114 |
| ACACCTGG | 0.104 |
| GTGTCACA | 0.102 |
| CCAGGGAA | -0.242 |
| TGGGTTAA | 0.135 |
| ACGTTACC | 0.173 |
| CGATGGGA | -0.272 |
| ATGGTTCG | -0.00557 |
| GGTCAATA | -0.0849 |
| GAAGGTCC | -0.134 |
| AATTAATT | 0.138 |
| AGGACGTG | -0.0454 |
| GTTCTCGA | -0.028 |
| CTAGTGTC | -0.194 |
| AAAGGTCC | -0.0572 |
| ACCTTGGA | -0.0979 |
| AGAGAGTG | -0.133 |

| Sequence | PBM E-score |
| --- | --- |
| CTGGATAA | -0.0226 |
| ACTTATGA | -0.0662 |
| GCTTTTTA | 0.139 |
| ACGTGAGA | 0.00152 |
| AGGCCCCC | -0.0567 |
| GTTCGATA | 0.00894 |
| TAAGTCGA | -0.0559 |
| ATCCGGGC | -0.214 |
| AATCCCCG | -0.129 |
| CCCCAATA | -0.142 |
| AAACCATC | 0.023 |
| AACCGACG | 0.0429 |
| CCGGAAGA | 0.029 |
| AGTAAGGC | 0.195 |
| GAGTTGGC | -0.0348 |
| AGTGACTC | -0.12 |
| CATACGCC | -0.0598 |
| ACCACGCA | 0.0269 |
| AGTTCTAA | -0.0642 |
| CCAGCGAC | -0.0489 |
| AAAAGACC | -0.0992 |
| CATGCAAC | 0.0717 |
| AGTATAGG | 0.0641 |
| CTAATAAC | 0.161 |
| ATGCCGCC | -0.117 |

| Sequence | PBM E-score |
| --- | --- |
| CTTGCATC | -0.16 |
| ACATCCTA | 0.0924 |
| CAAGGCTA | 0.156 |
| CTCGCGCC | -0.182 |
| AGCGACTA | 0.0607 |
| GTGCGTGA | 0.165 |
| AATGCGTA | 0.171 |
| ACTCTTTA | 0.159 |
| ACCCAGGT | -0.00688 |
| AACAAAAA | 0.244 |
| AGGTTAGG | -0.0707 |
| GCGAGTCA | -0.208 |
| CGCAACTC | -0.0761 |
| TAGCACCA | -0.0284 |
| ATCGTCGG | -0.21 |
| ACTCGTTC | 0.122 |
| ACTGCGTC | -0.0852 |
| CTTGCGAA | 0.142 |
| ACGGAAAT | 0.105 |
| GAACGCAA | 0.041 |
| ACCAGCGT | -0.0988 |
| CCCAATCG | -0.208 |
| GATGATAA | 0.0113 |
| AACTGAGA | -0.0277 |
| ATTCAAGG | 0.0502 |

| Sequence | PBM E-score |
| --- | --- |
| GGGCAACA | 0.145 |
| CACAAGCA | 0.189 |
| AGAAGTTA | 0.0384 |
| AGGCCCGG | -0.0971 |
| CCCCCGAG | -0.352 |
| AGCGTACA | 0.0513 |
| ATCATGGG | -0.0935 |
| ATCACGCG | 0.05 |
| AAGGGCCC | -0.307 |
| AAAAGGTG | 0.127 |
| ATACTAGG | -0.00956 |
| CGGACGGA | -0.133 |
| GGGGTTAA | -0.0764 |
| CACGTCCG | -0.179 |
| AGAGTTTA | 0.116 |
| AGAGACAT | 0.0131 |
| AGTGACGA | 0.00248 |
| ACAATTAG | 0.00046 |
| CCCGCACC | -0.318 |
| GATCATCC | -0.216 |
| ATGTTCCG | -0.00735 |
| AACCGGAT | 0.0805 |
| ACAAGGCC | 0.0968 |
| CTTATACA | 0.199 |
| AGCTGGAT | -0.15 |

| Sequence | PBM E-score |
| --- | --- |
| CTGATTTA | 0.129 |
| GGTAAGAC | -0.126 |
| CTCAAATA | -0.0121 |
| GAGTGTAC | 0.0789 |
| GTAGCACA | -0.0448 |
| AAACTGGT | -0.188 |
| CCTTGAAC | 0.197 |
| GACACTGA | -0.101 |
| ACCAATCC | -0.0847 |
| CGTCCCCC | -0.235 |
| ACGGTGTA | 0.225 |
| AGTCGTTA | -0.143 |
| GCGGAAAC | -0.334 |
| CCTTGTTA | 0.24 |
| ATACCATC | 0.0128 |
| ATCTGATG | -0.2 |
| ATAATCGG | 0.0441 |
| ACTCCTCG | -0.0921 |
| ACAGTGCG | -0.0961 |
| GAGCGATA | -0.198 |
| CTAGTTGC | 0.0541 |
| AAGAATAT | -0.0497 |
| GCGCACAA | 0.104 |
| GACTACAA | 0.0845 |
| ACGAGCGA | 0.00046 |

| Sequence | PBM E-score |
| --- | --- |
| CAGGAGGA | -0.0317 |
| GAATGGCA | -0.153 |
| ATCTCGAC | 0.0161 |
| CGCAGATA | -0.072 |
| GTATCTAA | 0.105 |
| TCCGTACA | 0.0405 |
| GAACATAC | 0.248 |
| ACAAAAAC | 0.143 |
| GGCAACAC | 0.286 |
| AGGCAGTA | 0.108 |
| TAACGAAA | 0.0665 |
| ACTCCCCC | -0.243 |
| ACTTGAAC | 0.0546 |
| GTGACGCA | -0.125 |
| AAGTATAC | 0.0723 |
| ACGTCTGG | -0.00636 |
| CACTAATG | -0.0604 |
| ACCAGTCT | -0.195 |
| ACTCTTCA | 0.0297 |
| ACCGGTTG | -0.184 |
| CGTCTCTC | -0.12 |
| CACAGCGA | 0.0949 |
| CCGTTACC | 0.0706 |
| ATACGCTA | -0.062 |
| AGACGGAG | -0.238 |

| Sequence | PBM E-score |
| --- | --- |
| GATATGAA | 0.0169 |
| GTCGAATA | -0.052 |
| CATAATGG | -0.289 |
| ATCTTAGA | -0.123 |
| ATTATGTA | 0.339 |
| AAACGAAG | 0.104 |
| CGACGTTC | -0.126 |
| GATCAAAA | -0.165 |
| GCGACTCC | -0.251 |
| TGTCATAA | 0.246 |
| CTCTGCAA | -0.0788 |
| ATTCCTAA | 0.105 |
| TGGCTAAA | -0.141 |
| GTAAAAAA | 0.262 |
| GTGCGCCA | -0.267 |
| AACACGGC | 0.257 |
| AGTCTGGG | -0.187 |
| AACTCTTG | 0.0424 |
| ATAAGGCC | -0.142 |
| AGCAATGC | -0.16 |
| AGTCGATA | -0.136 |
| AGATGGGA | -0.204 |
| AGACAGAT | -0.0373 |
| CGTAACAG | 0.0994 |
| ACGGGGAG | -0.244 |

| Sequence | PBM E-score |
| --- | --- |
| ATTCAAAG | -0.117 |
| CGCGGGTC | 0.069 |
| ATCATGCG | -0.103 |
| ATCCTACA | 0.134 |
| CGCAAGGC | 0.12 |
| CGGAGCAC | -0.102 |
| CAGACCTA | -0.0525 |
| AACTCCGC | -0.187 |
| CAACGACA | 0.139 |
| CCTTAGTA | 0.0101 |
| AGTTCGAG | -0.0327 |
| AAATTCAC | 0.0912 |
| GGGCGCAA | -0.0882 |
| GGATTATA | -0.0989 |
| AACGTCAC | -0.037 |
| ATGATCCC | -0.289 |
| CACCGAAG | -0.0379 |
| GATAAATA | 0.0383 |
| GGCTAAAC | -0.0443 |
